Data: PubChem BioAssay AID1963576 (National Center for Advancing Translational Sciences (NCATS), 2024)
The whole screen tested about 46,000 compounds, of which about 60 (0.1%) were called active. Roughly 3% stayed inconclusive and do not appear here. Calls come from the whole dose curve; as a rule, active = well fitted inhibition curve with a large enough effect; inconclusive = small, poorly fitted or top-dose-only effect; inactive = no such curve, though single readings can be large or run the other way. Some of the results follow.

assay: Primary qHTS assay for Inhibitors of ovarian cancer metastasis using an organotypic tumor microenvironment (TME) model.; note: nearly all actives have a fitted effect of over 65% in size;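 for activity change, negative = inhibition: plate controls were DMSO wells for no effect and tomatine positive control wells for full effect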; conditions: SKOV3ip1-GFP adhesion/invasion on 3D omental model, fluorescence; series mostly up to 45.8 µM; activity change, negative = inhibition: at the top concentration
Procedure, shortened: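 qHTS, 4-pt dose (0.36-46 umol/L); SKOV3ip1-GFP, 1,200 cells/well, no FBS; primary omental fibroblast/mesothelial co-culture 48 h pre-grown; 2 h RT + 16 h 37 C; PBS wash, 4% PFA; GFP count 488/509 nm.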

Structure (SMILES)	activity change, negative = inhibition	outcome
O=C(NCCc1ccc(F)cc1)C(=O)NCC(c1ccco1)S(=O)(=O)c1ccccc1 (configuration not stated)	inactive: 4.1%	
CCOc1ccc(/C=C/c2nc(C#N)c(N3CCN(CC)CC3)o2)cc1		inactive
CC(Oc1ccccc1)C(=O)Nc1ccc(C(=O)OCc2cc(=O)n3nc(C(C)C)sc3n2)cc1 (configuration not stated)	inactive: 12.6%	
CCN(CC)S(=O)(=O)c1ccc(NC(=O)Cn2ncc3c([nH]c4ccccc43)c2=O)cc1	inactive: 2.52%	
Cc1[nH]c2ccc(C(=O)N3CCN(c4ccccc4F)CC3)cc2c1C	inactive: -4.75%	
Cc1cc(F)ccc1NC(=O)c1csc2c1CCC(C)C2 (configuration not stated)		inactive
Cc1ccccc1NC(=O)CSc1c(C(C)C)cnc2c1c(=O)n(C)c(=O)n2C		inactive
Cc1cc(C)cc(OCC(=O)Nc2nc(-c3ccc(F)cc3)ns2)c1	inactive: -9.71%	
CCOc1ccccc1NC(=O)CSc1nc2ccccc2nc1N1CCOCC1	inactive: -6.27%	
COC(=O)c1cc(NS(=O)(=O)c2ccc3c(c2)OCCO3)ccc1Cl	inactive: 9.02%	
COc1ccc(C(=O)Nc2nnc(SCc3cc(=O)c4cc(C)ccc4[nH]3)s2)cc1OC		inactive
Cc1cccn2c(=O)c(C(=O)N3CCN(c4ccccc4F)CC3)cnc12	inactive: -5.57%	
COc1ccc(CNC(=O)Cn2c(=O)c3cccn3c3cccnc32)cc1		inactive
Cc1nn(-c2ccccc2)c2sc(C(=O)Nc3ccc(Cl)cc3Cl)cc12		inactive
CCCCN(C)CCNC(=O)c1nn(-c2ccc(OC)c(Cl)c2)c(=O)c2c1c1ccccc1n2C	inactive: 7.31%	
Cc1cc(C)c(S(=O)(=O)NCc2ccc3c(c2)CCN3C(=O)c2ccccc2)c(C)c1	inactive: -0.0548%	
CCN(CC)c1ccc2cc(-c3nnc(Nc4ccc(C)cc4)s3)c(=O)oc2c1	inactive: -16.2%	
COc1ccc2c(C)c(CCC(=O)NCCc3ccccc3)c(=O)oc2c1	inactive: -8.84%	
COC(=O)C1=C(CS(=O)(=O)c2ccc(C)cc2C)NC(=O)NC1c1ccc(C)cc1 (configuration not stated)	inactive: -18.3%	
Cc1cc2c(cc1S(=O)(=O)N(CCN(C)C)Cc1ccccc1)OCC(=O)N2	inactive: 10.7%	
COc1ccc(C(=O)NCCn2cc(SCC(=O)Nc3ccc4c(c3)OCCO4)c3ccccc32)cc1		inactive
Cc1cccc(N2CCN(S(=O)(=O)c3cc(C(=O)Nc4ccc(Oc5ccccc5)cc4)ccc3F)CC2C)c1 (configuration not stated)		inactive
COc1ccccc1C(c1c(O)cc(C)n(Cc2ccco2)c1=O)N1CCCCC1 (configuration not stated)	inactive: -28.2%	
CCC(Oc1ccccc1F)C(=O)Nc1cc(-c2ccccc2)no1 (configuration not stated)	inactive: 1.43%	
CCOc1ccccc1NC(=O)c1nc(S(=O)(=O)Cc2cccc(C)c2)ncc1Cl		inactive

Structure (SMILES)	activity change, negative = inhibition	outcome
CCOC(=O)C1CCCN(S(=O)(=O)c2cc(-c3onc(C)c3C)ccc2OC)C1 (configuration not stated)		inactive
CCc1c(-c2ccccc2)nc2ccccc2c1C(=O)NC(C)c1ccccc1 (configuration not stated)		inactive
COc1ccc(S(=O)(=O)N(CC(=O)NCCSc2ccc(C)cc2)c2ccc(C)cc2)cc1	inactive: 6.01%	
CCOc1ccccc1NC(=O)CSc1c2c(nc3ccc(Cl)cc13)CCCC2	inactive: 6.35%	
Cc1nc2c(c(C)c1CCC(=O)NCc1ccc(F)cc1)c(=O)n(C)c(=O)n2C	inactive: -3.56%	
CC(=O)N1CCC(N(Cc2ccc(C)o2)C(=O)Nc2ccccc2F)CC1	inactive: -13.2%	
CCCN(c1ccccc1F)S(=O)(=O)c1ccc2c(c1)C(C)(C)C(=O)N2C		inactive
COc1cccc(-c2nc(-c3ccc(Br)o3)no2)c1	inactive: -8.23%	
Cc1[nH]c2ccc(C(=O)NCCCN3CCCCC3)cc2c1C	inactive: 9.98%	
COc1ccc(-c2noc(CNC(=O)c3cc(OC)c(OC)c(OC)c3)n2)cc1		inactive
CC1CCc2onc(C(=O)Nc3ccc(Cl)cc3)c2C1 (configuration not stated)		inactive
CCOC(=O)c1cc(OC(=O)c2ccccc2F)n(-c2ccccc2)n1	inactive: -2.33%	
O=C(NCc1ccccc1)c1cc(Sc2cccc(Cl)c2)nc2ccccc12	inactive: -13.6%	
CC(=O)N1c2ccccc2C(=O)C1N1CCN(c2ccc(Cl)cc2)CC1 (configuration not stated)	inactive: -2.41%	
CCOc1c(Br)cc(C2C=C(C(=O)O)Nc3ncnn32)cc1OC (configuration not stated)		inactive
COc1ccc(NCc2cc3cc4c(cc3n(CC(=O)Nc3ccc(C)cc3C)c2=O)OCO4)cc1	inactive: -13.5%	
CCOc1ccccc1NC(=O)Cn1nnc(C(=O)NCc2cccs2)c1N	inactive: 5.68%	
CC1=C(c2ccc(C(C)C)cc2)S(=O)(=O)N=C1N1CCN(c2ccccc2F)CC1	inactive: -0.279%	
Cc1ccccc1Nc1nn2c(=O)c3ccc(C(=O)NCC(C)c4ccccc4)cc3nc2s1 (configuration not stated)	inactive: -4.9%	
CC(C)C[C@H](N)c1nnc(SCc2ccc(Cl)cc2Cl)o1		inactive
Cc1ccc(-c2nc(S(=O)(=O)c3ccc(F)cc3)c(N3CCN(c4ccccc4)CC3)o2)cc1	inactive: 4.92%	
Nc1nc2c(ncn2COCCO)c(=O)[nH]1	inactive: -4.73%	
CCOC(=O)c1cccnc1SCC(=O)N(CC)c1cccc(C)c1	inactive: 3.98%	
Cc1ccc(C)c(N2CCN(C(=O)CCc3nnc4n(C)c(=O)c5ccccc5n34)CC2)c1	inactive: 8.6%	
CN1CCN(C(CNC(=O)C(=O)Nc2ccc(Cl)cc2)c2cccnc2)CC1 (configuration not stated)	inactive: 20.8%	

Structure (SMILES)	activity change, negative = inhibition	outcome
CCOCCCNC(=O)c1c[nH]c2ccc(S(=O)(=O)N(C)c3ccc(Cl)cc3F)cc2c1=O	inactive: -9.06%	
NC(=O)c1nc(Nc2ccccc2)sc1NC(=O)c1c(F)cccc1F	inactive: 7.87%	
CCOC(=O)c1ccc(NC(=O)c2c(NCc3sccc3C)sc3c2CCC(C)C3)cc1 (configuration not stated)	inactive: -2.61%	
CCc1ccccc1NC(=O)c1oc(=O)c2ccccc2c1-c1ccccc1	inactive: 5.13%	
CC(C)Cn1nc(NC(=O)c2cccc(Cl)c2)c2cc3ccccc3nc21	inactive: -10.9%	
COc1ccc(F)cc1S(=O)(=O)NCC(c1ccco1)S(=O)(=O)c1cccs1 (configuration not stated)	inactive: 8.75%	
CC(C)(C)c1ccc(OCC(=O)Nc2ccc(C(=O)OC3CCCCC3)cc2)cc1		inactive
COc1cccc(NC(=O)CSc2nc(=O)n(Cc3cccnc3)c3c2CCC3)c1	inactive: -2.02%	
Cc1cccc2c(=O)cc(CSc3ccccc3NC(=O)C(C)C)[nH]c12	inactive: 1.48%	
Cc1ccc2nc3c(cc(C#N)c(=O)n3-c3nnc(SCc4ccc(F)cc4)s3)c(=O)n2c1	inactive: -1.59%	
CCCCOc1cccc(C(=O)Nc2sc3c(c2C(=O)OCC)CCCC3)c1	inactive: 0.841%	
CCOc1ccc(-n2c(SCc3ccccc3)nc3c([nH]c4ccccc43)c2=O)cc1	inactive: 38.1%	
CCCN(CCC)C(=O)Cn1c(=O)n(-c2ccc(OC)cc2OC)c(=O)c2c3c(sc21)CCC3		inactive
CCOc1ccc(CNC(=O)c2ccc3c(c2)c(C)c(C)n3C)cc1	inactive: -9.99%	
COc1ccc(CCNC(=O)CCCCn2c(=O)c3ccccc3n(Cc3cc(C)ccc3C)c2=O)cc1OC		inactive
Cc1ccc(Sc2ccc(N3CCCC(C(=O)Nc4ccc(F)c(Cl)c4)C3)nn2)cc1 (configuration not stated)		inactive
CCOc1ccccc1NC(=O)Cn1c(=O)n(CC(=O)NCc2ccccc2Cl)c(=O)c2sccc21		inactive
Cc1cccc(C(=O)NCCc2nc3ccccc3n2Cc2ccccc2Cl)c1		inactive
COc1cccc(CNC(=O)N2CCc3c(sc4c3CCCC4)C2c2ccc(F)cc2)c1 (configuration not stated)	inactive: -14.4%	
Cc1nc2ncnn2c(C)c1CCC(=O)N1CCN(c2ccc(F)cc2)CC1	inactive: -8.56%	
CC(C)c1ccc2c(c1)NC(c1ccc(F)cc1)=NC(c1cccs1)=N2	inactive: 0.287%	
COc1ccc(Nc2cc(C)c3cc(NC(=O)c4ccccc4Cl)ccc3n2)cc1		inactive
Fc1ccc(-c2noc3ncnc(NCCc4ccc(Cl)cc4)c23)cc1	inactive: -2.18%	
COc1cccc(N2CC(NC(=O)c3cc4ccccc4o3)CC2=O)c1 (configuration not stated)	inactive: 9.71%	
Cc1ccc(NC(=O)Nc2nnc(SCC(=O)N3CCCCC3)s2)cc1		inactive

Structure (SMILES)	activity change, negative = inhibition	outcome
CCn1c2c(c(=O)n3ncc(C(=O)N4CCN(c5ccccc5)CC4)c13)CN(Cc1ccc(OC)cc1)CC2	inactive: 4.52%	
COc1ccc(OC)c(C2C(C(=O)Nc3ccc(C)cc3C)=C(C)Nc3c(C(=O)Nc4ccc(F)cc4)cnn32)c1 (configuration not stated)	inactive: -4.09%	
CC(C)c1noc(-c2ccccc2OCC(=O)Nc2ccc([N+](=O)[O-])cc2)n1	inactive: -0.75%	
O=C(CSc1nnc(-c2ccncc2)n1-c1ccccc1)Nc1ccc(F)cc1	inactive: 32.8%	
CCOC(=O)CCc1c(C)nc2c(-c3ccccc3)c(C)[nH]n2c1=O	inactive: 8.12%	
COc1ccc(Cl)cc1NC(=O)CSc1nc(=O)n(Cc2ccco2)c2c1CCC2	inactive: -19.2%	
CS(=O)(=O)N1CCN(Cc2cc3nc(-c4cccc5[nH]ncc45)nc(N4CCOCC4)c3s2)CC1	inactive: -14.1%	
Cc1ccc(OCC(=O)Nc2nnc(S(=O)(=O)N3CCc4ccccc43)s2)cc1	inactive: 5.61%	
COc1ccc(N2CCN(S(=O)(=O)c3ccc(C4CCCCC4)cc3)CC2)cc1		inactive
Cc1ccc(-n2ncc3c(Nc4ccc(Oc5ccccc5)cc4)ncnc32)c(C)c1	inactive: -9.51%	
COc1ccc(OC)c(-c2noc(CSc3nnc(-c4ccccc4)n3-c3ccccc3)n2)c1	inactive: -16.2%	
CC(C)NCC(O)c1ccc(O)c(O)c1 (configuration not stated)	inactive: -16.1%	
CCOC(=O)c1ccccc1NC(=O)c1cn(CC(C)C)c(=O)c2cc(OC)c(OC)cc12		inactive
CC(C)(C)c1ccc(C(=O)NCC(c2ccco2)S(=O)(=O)c2ccc(F)cc2)cc1 (configuration not stated)	inactive: -6.64%	
CN(C)c1ccc(CNC(=O)c2ccc(Cn3c(=O)c4cccn4c4cccnc43)cc2)cc1		inactive
CCOC(=O)c1ccc(NC(=O)CSc2nnc3c4ccccc4n(CC)c3n2)cc1	inactive: 2.71%	
COc1ccc(-n2cnc3cc(C(=O)NC4CCCC4)ccc32)cc1	inactive: -4.79%	
COc1ccc(Cn2c(C(=O)O)c(CNCc3ccco3)c3ccc(OC)cc32)cc1	inactive: -5.05%	
O=C(CSc1c2c(nc3ccccc13)CCC2)Nc1ccc(F)cc1	inactive: -7.76%	
COc1ccc(CNC(=O)CSc2ncc3c(n2)-c2ccc(Cl)cc2N(Cc2ccc(F)cc2)S3(=O)=O)cc1OC		inactive
COCCCNC(=O)CCCn1c(SCC(=O)c2ccc(F)cc2)nc2c(sc3ccccc32)c1=O	inactive: 0.184%	
CCCCN(CCCC)CCC(O)c1cc2c(Cl)cc(Cl)cc2c2cc(C(F)(F)F)ccc12 (configuration not stated)	inactive: 9.59%	
